According to PubChem BioAssay AID686979 (National Center for Advancing Translational Sciences (NCATS), 2013):
Hit rate of the full screen: of about 420,000 compounds, about 50,000 (12%) were called active. The inconclusive results got no clear call from the source; some entries with a clear call stand among them for comparison. Calls come from the whole dose curve; as a rule, active = well fitted inhibition curve with a large enough effect; inconclusive = small, poorly fitted or top-dose-only effect; inactive = flat fitted curve, though single readings scatter. No potency is given beside an inconclusive call; the fits are too rough.

Assay: qHTS for Inhibitors of human tyrosyl-DNA phosphodiesterase 1 (TDP1): qHTS in cells in presence of CPT; note: nearly all actives have a fitted effect of over 55% in size
Settings: chicken DT40 Tdp1-/-;hTDP1 cells + 20 nM CPT, ATP luminescence, 48 h; activity change, negative = growth inhibition: at 46.2 µM (top of the series) unless noted
Method in brief: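 Chicken DT40 Tdp1-/- cells complemented with human TDP1, 400 cells/well, exposed to compounds plus 20 nM camptothecin for at least 48 h at 37 C; viability read as ATP content by CellTiter-Glo luminescence.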
% is set by controls: 0 for no effect and ±100 for the full control effect; potency is the fitted concentration of half-maximal effect; tags give direction and shape of the fitted curve.

SMILES | Potency | activity change, negative = growth inhibition
CCCCCOC(=O)Cn1c(SCC(=O)Nc2ccccc2)nc2c1c(=O)[nH]c(=O)n2C | inconclusive [inhibitor, partial curve] | –
Cc1cc(C)nc(NN=CC2=C(N3CCOCC3)/C(=C/c3ccc(Cl)cc3)CC2)n1 | active: 11.6 µM | –
COc1ccccc1-c1nc(S(=O)(=O)c2ccccc2)c(N2CCCCC2)o1 | inconclusive [inhibitor, single point] | –
Cc1ccc(-n2ncc3c2CCCC3NC(=O)c2csnn2)cc1C (stereo not given) | inconclusive [inhibitor, partial curve] | –
O=C(CC1C(=O)NCCN1Cc1ccccc1)NCCCOc1cccnc1 (stereo not given) | – | inactive: -16.2%
C[C@H](NC(=O)c1nc[nH]c1C(=O)N[C@@H](CCCCNC(=O)OC(C)(C)C)C(=O)OC(C)(C)C)C(=O)OCc1ccccc1 | inconclusive [inhibitor, single point] | –
CC(=O)Nc1ccc(Oc2ccc(S(=O)(=O)N3CCCC3)cn2)cc1 | – | inactive: -0.498%
CCOc1cccc(N(C(=O)CCC(=O)Nc2cc(C)on2)C(C(=O)NC(C)(C)C)c2ccc(OC)cc2)c1 (stereo not given) | active: 29.1 µM | –
Cc1c(OCc2ccccc2)c(=O)ccn1Cc1ccc(Cl)cc1 | inconclusive [inhibitor, single point] | –
CC(=O)NCC1(O)CCCC(C)C1 (stereo not given) | – | inactive: -14%
COC(=O)c1c(C)oc2ccc(N(C(=O)c3ccncc3)S(=O)(=O)c3ccc(C)cc3)cc12 | active: 3.66 µM | –
CN(CCOc1cccc(C(F)(F)F)c1)Cc1ccccc1 | inconclusive [inhibitor, single point] | –
N#Cc1cc([N+](=O)[O-])ccc1NC(=O)COC(=O)C1CC2CCCC(C1)C2=O (stereo not given) | – | inactive: -10.5%
COc1cccc(CSc2nc3sc(C)c(C)c3c(=O)n2Cc2ccco2)c1 | – | inactive: -27.3%
S=C(Nc1ccccc1)N1CCN(C/C=C/c2ccccc2)CC1 | – | inactive: -25.9%
COc1ccc(/C=C2/C(=O)OCc3cc(OC)c(OC)cc32)c(OC)c1 | inconclusive [inhibitor, single point] | –
N#Cc1cccc(NC(=O)Cn2cnc(S(=O)(=O)N3CCc4ccccc43)c2)c1 | – | inactive: -23.2%
Cc1cc(C)c(C(=O)N2CCCC(Nc3ccc(F)cc3)C2)o1 (stereo not given) | inconclusive [inhibitor, single point] | –
Fc1cccc(-n2cc(-c3ccccc3)c3c(=S)nc[nH]c32)c1 | inconclusive [inhibitor, single point] | –
O=C(Nc1ccc(F)cc1)Nc1cccc(Br)c1 | inconclusive [inhibitor, single point] | –
